Test results from the antibiotic and cytotoxicity screens of Wong et al. (2023).
This is one part of the list.

Key:
HSkMC = human skeletal muscle cells; assay: cytotoxicity call (relative viability < 0.9); conditions: 10 µM
HepG2 = assay: cytotoxicity call (relative viability < 0.9); conditions: 10 µM
S. aureus RN4220 = assay: growth inhibition call (relative growth <= 0.2); conditions: 50 µM

Cc1noc(C)c1NC(=O)N(C)C[C@@H]1Oc2ccc(NS(=O)(=O)c3c(C)noc3C)cc2C(=O)N([C@H](C)CO)C[C@@H]1C
inactive: cytotoxicity call (HSkMC) | cytotoxicity call (HepG2) | growth inhibition call (S. aureus RN4220)

Cc1noc(C)c1NC(=O)N(C)C[C@@H]1OCCCC[C@@H](C)Oc2ccc(NC(=O)CCC(F)(F)F)cc2C(=O)N([C@@H](C)CO)C[C@H]1C
inactive: cytotoxicity call (HSkMC) | cytotoxicity call (HepG2) | growth inhibition call (S. aureus RN4220)

C[C@@H]1CN([C@@H](C)CO)S(=O)(=O)c2ccc(C#Cc3ccccc3)cc2O[C@@H]1CN(C)C(=O)Cc1ccccn1
inactive: cytotoxicity call (HSkMC) | cytotoxicity call (HepG2) | growth inhibition call (S. aureus RN4220)

Cc1noc(C)c1S(=O)(=O)N(C)C[C@H]1OCCCC[C@@H](C)Oc2ccc(NS(C)(=O)=O)cc2C(=O)N([C@@H](C)CO)C[C@@H]1C
inactive: cytotoxicity call (HSkMC) | cytotoxicity call (HepG2) | growth inhibition call (S. aureus RN4220)

CC(=O)N1[C@@H]2Cn3c(ccc(-c4ccccc4)c3=O)[C@H]1[C@@H](C(=O)N1CCN(C)CC1)[C@@H]2CO
inactive: cytotoxicity call (HSkMC) | cytotoxicity call (HepG2) | growth inhibition call (S. aureus RN4220)

C[C@@H]1CN([C@H](C)CO)C(=O)c2cc(NC(=O)C3CCCCC3)ccc2O[C@@H](C)CCCCO[C@H]1CN(C)C(=O)Nc1cccc2ccccc12
inactive: cytotoxicity call (HSkMC) | cytotoxicity call (HepG2) | growth inhibition call (S. aureus RN4220)

COCC#Cc1ccc([C@H]2[C@@H](CO)N3C(=O)CN(C(=O)CN4CCOCC4)C[C@@H]23)cc1
inactive: cytotoxicity call (HSkMC) | cytotoxicity call (HepG2) | growth inhibition call (S. aureus RN4220)

C[C@@H](O)[C@@H](O)[C@H]1CNc2[nH]c(N)nc(=O)c2N1
inactive: cytotoxicity call (HSkMC) | cytotoxicity call (HepG2) | growth inhibition call (S. aureus RN4220)

CCCCCC(C)N.O=S(=O)(O)O (stereo not drawn)
inactive: cytotoxicity call (HSkMC) | cytotoxicity call (HepG2) | growth inhibition call (S. aureus RN4220)

O=C(C[C@H]1CC[C@@H]2[C@H](COC[C@H](O)CN2C(=O)c2ccccn2)O1)NC1CCC1
inactive: cytotoxicity call (HSkMC) | cytotoxicity call (HepG2) | growth inhibition call (S. aureus RN4220)

Cc1cn([C@H]2O[C@@H](CO)[C@H](O)[C@H]2F)c(=O)[nH]c1=O
inactive: cytotoxicity call (HSkMC) | cytotoxicity call (HepG2) | growth inhibition call (S. aureus RN4220)

C[C@H]1CN([C@@H](C)CO)C(=O)c2cc(NS(=O)(=O)c3ccc(F)cc3)ccc2O[C@H]1CN(C)CC1CC1
inactive: cytotoxicity call (HSkMC) | cytotoxicity call (HepG2) | growth inhibition call (S. aureus RN4220)

C[C@@H]1CN([C@@H](C)CO)C(=O)c2cc(NC(=O)Nc3ccc(F)cc3)ccc2O[C@@H](C)CCCCO[C@H]1CN(C)C(=O)C1CCCCC1
inactive: cytotoxicity call (HSkMC) | cytotoxicity call (HepG2) | growth inhibition call (S. aureus RN4220)

CN1C(=O)c2cc(NC(=O)Cc3cccs3)ccc2OC[C@H]2O[C@H](CC(=O)NCc3ccc(-c4ccccc4)cc3)CC[C@H]21
inactive: cytotoxicity call (HSkMC) | cytotoxicity call (HepG2) | growth inhibition call (S. aureus RN4220)

CS(=O)(=O)c1ncc(Cl)c(C(=O)NCCc2ccc(S(N)(=O)=O)cc2)n1
inactive: cytotoxicity call (HSkMC) | cytotoxicity call (HepG2) | growth inhibition call (S. aureus RN4220)

C[C@@H]1CCCCO[C@H](CN(C)CC2CC2)[C@H](C)CN([C@@H](C)CO)C(=O)c2cc(NC(=O)c3ccccc3)ccc2O1
inactive: cytotoxicity call (HSkMC) | cytotoxicity call (HepG2) | growth inhibition call (S. aureus RN4220)

CO[C@@]1(NC(=O)CSC[C@@H](N)C(=O)O)C(=O)N2C(C(=O)O)=C(CSc3nnnn3C)CS[C@@H]21
inactive: cytotoxicity call (HSkMC) | cytotoxicity call (HepG2) | growth inhibition call (S. aureus RN4220)

C[C@H](CO)N1C[C@H](C)[C@H](CN(C)C(=O)Nc2ccc(F)cc2)OCCCC[C@H](C)Oc2ccc(NC(=O)C3CCCC3)cc2C1=O
inactive: cytotoxicity call (HSkMC) | cytotoxicity call (HepG2) | growth inhibition call (S. aureus RN4220)

O=C(CCCCCNC(=O)OCc1ccc(CN(C(=O)Nc2ccccc2)[C@@H](Cc2ccccc2)Cn2cc(-c3ccccn3)nn2)cc1)NO
inactive: cytotoxicity call (HSkMC) | cytotoxicity call (HepG2) | growth inhibition call (S. aureus RN4220)

COC(=O)[C@H](Cc1ccc(-n2cc(CCC(=O)NO)nn2)cc1)N1CC(/C=C/[C@@H](O)Cc2ccccc2)=C[C@@H](C2CC2)O1
inactive: cytotoxicity call (HSkMC) | cytotoxicity call (HepG2) | growth inhibition call (S. aureus RN4220)

Cc1ccc(S(=O)(=O)N(C)C[C@H]2OCCCC[C@H](C)Oc3ccc(NC(=O)Nc4ccccc4)cc3C(=O)N([C@@H](C)CO)C[C@H]2C)cc1
inactive: cytotoxicity call (HSkMC) | cytotoxicity call (HepG2) | growth inhibition call (S. aureus RN4220)

CC(C)Oc1ccc2c(=O)c(-c3ccccc3)coc2c1
inactive: cytotoxicity call (HSkMC) | cytotoxicity call (HepG2) | growth inhibition call (S. aureus RN4220)

C[C@H](CO)N1C[C@H](C)[C@@H](CN(C)C(=O)C2CCCCC2)Oc2cc(-c3cncnc3)ccc2S1(=O)=O
inactive: cytotoxicity call (HSkMC) | cytotoxicity call (HepG2) | growth inhibition call (S. aureus RN4220)

CCCCCCCC/C=C\C/C=C\C/C=C\CCCC(=O)O
inactive: cytotoxicity call (HSkMC) | cytotoxicity call (HepG2) | growth inhibition call (S. aureus RN4220)

C/C=C/[C@@H](CCn1cc(CCO[Si](C(C)C)(C(C)C)C(C)C)nn1)[Si](C)(C)c1ccc(OC)cc1
inactive: cytotoxicity call (HSkMC) | cytotoxicity call (HepG2) | growth inhibition call (S. aureus RN4220)

C[C@H](CO)N1C[C@H](C)[C@@H](CN(C)S(=O)(=O)c2cn(C)cn2)Oc2ncc(C#CCN(C)C)cc2C1=O
inactive: cytotoxicity call (HSkMC) | cytotoxicity call (HepG2) | growth inhibition call (S. aureus RN4220)
